The supplement of paper PMC4967469
Lines with a small IC50 respond at low doses; a fit beyond the top or the lowest dose is shown as a bound at that dose. AUC, from the same fit, is the share of area under the viability curve across the 256-fold dose range; the more sensitive the line, the further below 1. A top dose marked as inferred is not printed in the source and was worked back from the curve model. For part of these data: Drugs with an entry number were screened twice under separate entries, and the two screens often disagree.

What was measured:
Experiment in all cases: Viability of human cancer cell lines after 72 h of drug (GDSC screen)
BMS-536924 = compound: Cc1cc(N2CCOCC2)cc2[nH]c(-c3c(NC[C@@H](O)c4cccc(Cl)c4)cc[nH]c3=O)nc12 [BMS-536924]; settings: top dose 4 µM; screen: GDSC drug entry 1091; top dose inferred
Protocol: (§1)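 Human cancer cell lines in 384-well plates, medium with 10% serum, drug for 72 h over a 256-fold dose range (nine 2-fold or five 4-fold steps up to the top dose). Adherent lines were fixed and stained with the nucleic acid dye Syto60, suspension lines read with resazurin; signal relative to control wells, capped at 0 and 100%. One two-parameter sigmoid per drug and line, fitted in a mixed model over all curves with the slope shared within a line.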

Shikonin = compound: CC(C)=CC[C@@H](O)C1=CC(=O)c2c(O)ccc(O)c2C1=O [Shikonin]; settings: top dose 16 µM; top dose inferred
Protocol: as §1

Wee1 inhibitor 681640 = compound: O=C1NC(=O)c2c1c(-c1ccccc1Cl)cc1[nH]c3ccc(O)cc3c21 [Wee1 inhibitor 681640]; settings: top dose 2 µM; top dose inferred
Protocol: as §1

VX-702 = compound: NC(=O)c1ccc(N(C(N)=O)c2c(F)cccc2F)nc1-c1ccc(F)cc1F [VX-702]; settings: top dose 2 µM; top dose inferred
Protocol: as §1

BIRB 0796 = compound: Cc1ccc(-n2nc(C(C)(C)C)cc2NC(=O)Nc2ccc(OCCN3CCOCC3)c3ccccc23)cc1 [BIRB 0796]; settings: top dose 10 µM; top dose inferred
Protocol: as §1

Olaparib = compound: O=C(c1cc(Cc2n[nH]c(=O)c3ccccc23)ccc1F)N1CCN(C(=O)C2CC2)CC1 [Olaparib]
Protocol: as §1

SB-525334 = compound: Cc1cccc(-c2[nH]c(C(C)(C)C)nc2-c2ccc3nccnc3c2)n1 [SB-525334]; settings: top dose 20 µM; top dose inferred
Protocol: as §1

[1] = top dose 5 µM, screen: GDSC drug entry 1017, top dose inferred
[2] = top dose 10 µM, screen: GDSC drug entry 1495

| Cell Line | AUC (BMS-536924) | IC50 (BMS-536924) | AUC (Shikonin) | IC50 (Shikonin) | AUC (Wee1 inhibitor 681640) | IC50 (Wee1 inhibitor 681640) | AUC (VX-702) | IC50 (VX-702) | AUC (BIRB 0796) | IC50 (BIRB 0796) | AUC (Olaparib; [1]) | IC50 (Olaparib; [1]) | AUC (Olaparib; [2]) | IC50 (Olaparib; [2]) | AUC (SB-525334) | IC50 (SB-525334) |
| --- | --- | --- | --- | --- | --- | --- | --- | --- | --- | --- | --- | --- | --- | --- | --- | --- |
| HuO-3N1 (osteosarcoma, adherent) | 0.917 | > 4 µM | 0.737 | 6.03 µM | 0.971 | > 2 µM | 0.979 | > 2 µM | 0.966 | > 10 µM | 0.973 | > 5 µM | 0.932 | > 10 µM | 0.934 | > 20 µM |
| IPC-298 (melanoma, adherent) | 0.961 | > 4 µM | 0.804 | 7.86 µM | 0.9 | > 2 µM | 0.984 | > 2 µM | 0.987 | > 10 µM | 0.988 | > 5 µM | 0.985 | > 10 µM | 0.924 | > 20 µM |
| JHH-2 (liver, adherent) | 0.941 | > 4 µM | 0.46 | 0.774 µM | 0.914 | > 2 µM | 0.985 | > 2 µM | 0.986 | > 10 µM | 0.985 | > 5 µM | 0.978 | > 10 µM | 0.983 | > 20 µM |
| JHH-4 (liver, adherent) | 0.893 | > 4 µM | 0.388 | 0.493 µM | 0.987 | > 2 µM | 0.987 | > 2 µM | 0.978 | > 10 µM | 0.987 | > 5 µM | 0.969 | > 10 µM | 0.838 | 13.5 µM |
| JHH-7 (liver, adherent) | 0.858 | 2.97 µM | 0.277 | 0.245 µM | 0.984 | > 2 µM | 0.989 | > 2 µM | 0.975 | > 10 µM | 0.927 | > 5 µM | 0.942 | > 10 µM | 0.952 | > 20 µM |
| KMRC-1 (kidney, adherent) | 0.96 | > 4 µM | 0.395 | 0.506 µM | 0.977 | > 2 µM | 0.983 | > 2 µM | 0.981 | > 10 µM | 0.985 | > 5 µM |  |  | 0.98 | > 20 µM |
| KON (head and neck, adherent) | 0.932 | > 4 µM | 0.342 | 0.367 µM | 0.746 | 0.622 µM | 0.987 | > 2 µM | 0.912 | > 10 µM | 0.96 | > 5 µM | 0.918 | > 10 µM | 0.987 | > 20 µM |
| KP-2 (pancreas, adherent) | 0.788 | 1.91 µM | 0.571 | 1.59 µM | 0.954 | > 2 µM | 0.979 | > 2 µM | 0.965 | > 10 µM | 0.986 | > 5 µM | 0.939 | > 10 µM | 0.977 | > 20 µM |
| KP-3 (pancreas, adherent) | 0.869 | > 4 µM | 0.594 | 1.9 µM | 0.968 | > 2 µM | 0.984 | > 2 µM | 0.945 | > 10 µM | 0.984 | > 5 µM | 0.968 | > 10 µM | 0.952 | > 20 µM |
| KYM-1 (rhabdomyosarcoma, adherent) | 0.987 | > 4 µM | 0.461 | 0.797 µM | 0.921 | > 2 µM | 0.989 | > 2 µM | 0.916 | > 10 µM | 0.946 | > 5 µM | 0.918 | > 10 µM | 0.978 | > 20 µM |
| KYSE-520 (oesophagus, adherent) | 0.964 | > 4 µM | 0.399 | 0.48 µM | 0.904 | > 2 µM | 0.977 | > 2 µM | 0.957 | > 10 µM | 0.979 | > 5 µM | 0.979 | > 10 µM | 0.965 | > 20 µM |
| LCLC-103H (large cell lung carcinoma, adherent) | 0.987 | > 4 µM | 0.291 | 0.275 µM | 0.98 | > 2 µM | 0.989 | > 2 µM | 0.99 | > 10 µM | 0.981 | > 5 µM | 0.99 | > 10 µM | 0.982 | > 20 µM |
| LN-18 (glioma, adherent) | 0.983 | > 4 µM | 0.611 | 1.89 µM | 0.965 | > 2 µM | 0.994 | > 2 µM | 0.96 | > 10 µM | 0.994 | > 5 µM | 0.989 | > 10 µM | 0.989 | > 20 µM |
| LN-229 (glioma, adherent) | 0.978 | > 4 µM | 0.452 | 0.74 µM | 0.933 | > 2 µM | 0.987 | > 2 µM | 0.985 | > 10 µM | 0.986 | > 5 µM | 0.875 | 9.75 µM | 0.953 | > 20 µM |
| LNZTA3WT4 (glioma, adherent) | 0.973 | > 4 µM | 0.454 | 0.752 µM | 0.988 | > 2 µM | 0.989 | > 2 µM | 0.951 | > 10 µM | 0.988 | > 5 µM | 0.951 | > 10 µM | 0.961 | > 20 µM |
| LU-135 (small cell lung carcinoma, suspension) | 0.98 | > 4 µM | 0.477 | 0.873 µM | 0.973 | > 2 µM | 0.992 | > 2 µM | 0.978 | > 10 µM | 0.96 | > 5 µM | 0.97 | > 10 µM | 0.919 | > 20 µM |
| MC-IXC (neuroblastoma, adherent) | 0.961 | > 4 µM | 0.364 | 0.467 µM | 0.86 | 1.01 µM | 0.996 | > 2 µM | 0.989 | > 10 µM | 0.889 | 3.09 µM | 0.775 | 2.95 µM | 0.823 | 7.91 µM |
